Results published in the supplement of paper PMC12230231.
± gives the standard deviation of the averaged measurements. Restriction of a single-cycle SIVsab GFP reporter by TRIM5α v1-loop variants in CRFK cells. Human variants: read share among cells still uninfected after two challenges over input, higher = gained restriction. Rhesus variants: share among infected cells over input, higher = lost restriction. Reporter dose not given per row. No active / inactive call per row; the paper calls a change when both replicates lie above its controls (mean + 2 SD of stop or wild-type variants, or the top frameshift score). Residues outside the varied loop are taken from Swiss-Prot. The paper reads the human single-substitution scores as noise; they and the rhesus combinations repeat poorly (rank correlation 0.3 to 0.4), indel scores repeat only for the top variants, rhesus substitutions well (0.9).

System: SIVsab (simian immunodeficiency virus of sabaeus monkeys), single-cycle GFP reporter, in CRFK cells
Experiment: enrichment among uninfected cells over input (fold); higher = stronger restriction
Conditions: library: human / rhesus combinations
Description: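 Pools of CRFK cells expressing variants of the TRIM5α v1 loop were challenged with the single-cycle reporter, sorted by GFP and sequenced; mean of two replicates.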

Sequence | enrichment
MASGILVNVKEEVTCPICLELLTQPLSLDCGHSFCQACLTANHKKSMLDKGESSCPVCRISYQPENIRPNRHVANIVEKLREVKLSPEGQKVDHCARHGEKLLLFCQEDGKVICWLCERSQEHRGHHTFLTEEVAREYQVKLQAALEMLRQKQQEAEELEADIREEKASWKTQIQYDKTNVLADFEQLRDILDWEESNELQNLEKEEEDILKSLTNSETEMVQQTQSLRELISDLEHRLQGSVMELLQGVDGVIKRTENVTLKKPETFPKNQRRVFRAPDLKGMLEVFRELTDVRRYWVDVTVAPNNISCAVISEDKRQVSSPKPQIIYGAPGTRFPSLVNFNYCTGILGSQSITSGKHYWEVDVSKKTAWILGVCAGFQPDAMCNIEKNENYQPKYGYWVIGLEEGVKCSAFQDSSFHTPSVPFIVPLSVIICPDRVGVFLDYEACTVSFFNITNHGFLIYKFSHCSFSQPVFPYLNPRKCGVPMTLCSPSS [human TRIM5α, 330-340 = GAPGTRFPSLV] | 0.0993 ± 0.14
MASGILVNVKEEVTCPICLELLTQPLSLDCGHSFCQACLTANHKKSMLDKGESSCPVCRISYQPENIRPNRHVANIVEKLREVKLSPEGQKVDHCARHGEKLLLFCQEDGKVICWLCERSQEHRGHHTFLTEEVAREYQVKLQAALEMLRQKQQEAEELEADIREEKASWKTQIQYDKTNVLADFEQLRDILDWEESNELQNLEKEEEDILKSLTNSETEMVQQTQSLRELISDLEHRLQGSVMELLQGVDGVIKRTENVTLKKPETFPKNQRRVFRAPDLKGMLEVFRELTDVRRYWVDVTVAPNNISCAVISEDKRQVSSPKPQIIYQARGTRFTFPSLVNFNYCTGILGSQSITSGKHYWEVDVSKKTAWILGVCAGFQPDAMCNIEKNENYQPKYGYWVIGLEEGVKCSAFQDSSFHTPSVPFIVPLSVIICPDRVGVFLDYEACTVSFFNITNHGFLIYKFSHCSFSQPVFPYLNPRKCGVPMTLCSPSS [human TRIM5α, 330-340 = QARGTRFTFPSLV] | 0.295 ± 0.08
MASGILVNVKEEVTCPICLELLTQPLSLDCGHSFCQACLTANHKKSMLDKGESSCPVCRISYQPENIRPNRHVANIVEKLREVKLSPEGQKVDHCARHGEKLLLFCQEDGKVICWLCERSQEHRGHHTFLTEEVAREYQVKLQAALEMLRQKQQEAEELEADIREEKASWKTQIQYDKTNVLADFEQLRDILDWEESNELQNLEKEEEDILKSLTNSETEMVQQTQSLRELISDLEHRLQGSVMELLQGVDGVIKRTENVTLKKPETFPKNQRRVFRAPDLKGMLEVFRELTDVRRYWVDVTVAPNNISCAVISEDKRQVSSPKPQIIYGARGTLFTFQTFTNFNYCTGILGSQSITSGKHYWEVDVSKKTAWILGVCAGFQPDAMCNIEKNENYQPKYGYWVIGLEEGVKCSAFQDSSFHTPSVPFIVPLSVIICPDRVGVFLDYEACTVSFFNITNHGFLIYKFSHCSFSQPVFPYLNPRKCGVPMTLCSPSS [human TRIM5α, 330-340 = GARGTLFTFQTFT] | 0.244 ± 0.065
MASGILVNVKEEVTCPICLELLTQPLSLDCGHSFCQACLTANHKKSMLDKGESSCPVCRISYQPENIRPNRHVANIVEKLREVKLSPEGQKVDHCARHGEKLLLFCQEDGKVICWLCERSQEHRGHHTFLTEEVAREYQVKLQAALEMLRQKQQEAEELEADIREEKASWKTQIQYDKTNVLADFEQLRDILDWEESNELQNLEKEEEDILKSLTNSETEMVQQTQSLRELISDLEHRLQGSVMELLQGVDGVIKRTENVTLKKPETFPKNQRRVFRAPDLKGMLEVFRELTDVRRYWVDVTVAPNNISCAVISEDKRQVSSPKPQIIYGARGTRFPSLTNFNYCTGILGSQSITSGKHYWEVDVSKKTAWILGVCAGFQPDAMCNIEKNENYQPKYGYWVIGLEEGVKCSAFQDSSFHTPSVPFIVPLSVIICPDRVGVFLDYEACTVSFFNITNHGFLIYKFSHCSFSQPVFPYLNPRKCGVPMTLCSPSS [human TRIM5α, 330-340 = GARGTRFPSLT] | 0.0839 ± 0.1

Same assay, conditions: library: insertions and deletions

Sequence | enrichment
MASGILVNVKEEVTCPICLELLTQPLSLDCGHSFCQACLTANHKKSMLDKGESSCPVCRISYQPENIRPNRHVANIVEKLREVKLSPEGQKVDHCARHGEKLLLFCQEDGKVICWLCERSQEHRGHHTFLTEEVAREYQVKLQAALEMLRQKQQEAEELEADIREEKASWKTQIQYDKTNVLADFEQLRDILDWEESNELQNLEKEEEDILKSLTNSETEMVQQTQSLRELISDLEHRLQGSVMELLQGVDGVIKRTENVTLKKPETFPKNQRRVFRAPDLKGMLEVFRELTDVRRYWVDVTVAPNNISCAVISEDKRQVSSPKPQIIYGARGTRYQTFVTRYQTFVNFNYCTGILGSQSITSGKHYWEVDVSKKTAWILGVCAGFQPDAMCNIEKNENYQPKYGYWVIGLEEGVKCSAFQDSSFHTPSVPFIVPLSVIICPDRVGVFLDYEACTVSFFNITNHGFLIYKFSHCSFSQPVFPYLNPRKCGVPMTLCSPSS [human TRIM5α, 7-codon duplication at 334] | 0.00179 ± 0.0015
MASGILVNVKEEVTCPICLELLTQPLSLDCGHSFCQACLTANHKKSMLDKGESSCPVCRISYQPENIRPNRHVANIVEKLREVKLSPEGQKVDHCARHGEKLLLFCQEDGKVICWLCERSQEHRGHHTFLTEEVAREYQVKLQAALEMLRQKQQEAEELEADIREEKASWKTQIQYDKTNVLADFEQLRDILDWEESNELQNLEKEEEDILKSLTNSETEMVQQTQSLRELISDLEHRLQGSVMELLQGVDGVIKRTENVTLKKPETFPKNQRRVFRAPDLKGMLEVFRELTDVRRYWVDVTVAPNNISCAVISEDKRQVSSPKPQIIYGARGTRYYCTGILGSQSITSGKHYWEVDVSKKTAWILGVCAGFQPDAMCNIEKNENYQPKYGYWVIGLEEGVKCSAFQDSSFHTPSVPFIVPLSVIICPDRVGVFLDYEACTVSFFNITNHGFLIYKFSHCSFSQPVFPYLNPRKCGVPMTLCSPSS [human TRIM5α, 7-codon deletion at 337] | 1.35 ± 0.56
MASGILVNVKEEVTCPICLELLTQPLSLDCGHSFCQACLTANHKKSMLDKGESSCPVCRISYQPENIRPNRHVANIVEKLREVKLSPEGQKVDHCARHGEKLLLFCQEDGKVICWLCERSQEHRGHHTFLTEEVAREYQVKLQAALEMLRQKQQEAEELEADIREEKASWKTQIQYDKTNVLADFEQLRDILDWEESNELQNLEKEEEDILKSLTNSETEMVQQTQSLRELISDLEHRLQGSVMELLQGVDGVIKRTENVTLKKPETFPKNQRRVFRAPDLKGMLEVFRELTDVRRYWVDVTVAPNNISCAVISEDKRQVSSPKPQIQIIYGARGTRYQTFVNFNYCTGILGSQSITSGKHYWEVDVSKKTAWILGVCAGFQPDAMCNIEKNENYQPKYGYWVIGLEEGVKCSAFQDSSFHTPSVPFIVPLSVIICPDRVGVFLDYEACTVSFFNITNHGFLIYKFSHCSFSQPVFPYLNPRKCGVPMTLCSPSS [human TRIM5α, 2-codon duplication at 326] | 0.0033 ± 0.00036
MASGILVNVKEEVTCPICLELLTQPLSLDCGHSFCQACLTANHKKSMLDKGESSCPVCRISYQPENIRPNRHVANIVEKLREVKLSPEGQKVDHCARHGEKLLLFCQEDGKVICWLCERSQEHRGHHTFLTEEVAREYQVKLQAALEMLRQKQQEAEELEADIREEKASWKTQIQYDKTNVLADFEQLRDILDWEESNELQNLEKEEEDILKSLTNSETEMVQQTQSLRELISDLEHRLQGSVMELLQGVDGVIKRTENVTLKKPETFPKNQRRVFRAPDLKGMLEVFRELTDVRRYWVDVTVAPNNISCAVISEDKRQVSSPKPQIIYGARGTRYQTTFVNFNYCTGILGSQSITSGKHYWEVDVSKKTAWILGVCAGFQPDAMCNIEKNENYQPKYGYWVIGLEEGVKCSAFQDSSFHTPSVPFIVPLSVIICPDRVGVFLDYEACTVSFFNITNHGFLIYKFSHCSFSQPVFPYLNPRKCGVPMTLCSPSS [human TRIM5α, 1-codon duplication at 338] | 0.664 ± 0.34
MASGILVNVKEEVTCPICLELLTQPLSLDCGHSFCQACLTANHKKSMLDKGESSCPVCRISYQPENIRPNRHVANIVEKLREVKLSPEGQKVDHCARHGEKLLLFCQEDGKVICWLCERSQEHRGHHTFLTEEVAREYQVKLQAALEMLRQKQQEAEELEADIREEKASWKTQIQYDKTNVLADFEQLRDILDWEESNELQNLEKEEEDILKSLTNSETEMVQQTQSLRELISDLEHRLQGSVMELLQGVDGVIKRTENVTLKKPETFPKNQRRVFRAPDLKGMLEVFRELTDVRRYWVDVTVAPNNISCAVISEDKRQVSSPKPQIIYGARGTRYQTFVNFNYCNYCTGILGSQSITSGKHYWEVDVSKKTAWILGVCAGFQPDAMCNIEKNENYQPKYGYWVIGLEEGVKCSAFQDSSFHTPSVPFIVPLSVIICPDRVGVFLDYEACTVSFFNITNHGFLIYKFSHCSFSQPVFPYLNPRKCGVPMTLCSPSS [human TRIM5α, 3-codon duplication at 343] | 0.222 ± 0.16
MASGILVNVKEEVTCPICLELLTQPLSLDCGHSFCQACLTANHKKSMLDKGESSCPVCRISYQPENIRPNRHVANIVEKLREVKLSPEGQKVDHCARHGEKLLLFCQEDGKVICWLCERSQEHRGHHTFLTEEVAREYQVKLQAALEMLRQKQQEAEELEADIREEKASWKTQIQYDKTNVLADFEQLRDILDWEESNELQNLEKEEEDILKSLTNSETEMVQQTQSLRELISDLEHRLQGSVMELLQGVDGVIKRTENVTLKKPETFPKNQRRVFRAPDLKGMLEVFRELTDVRRYWVDVTVAPNNISCAVISEDKRQVSSPKPQIIYGARGTRYQTFVNFNGSQSITSGKHYWEVDVSKKTAWILGVCAGFQPDAMCNIEKNENYQPKYGYWVIGLEEGVKCSAFQDSSFHTPSVPFIVPLSVIICPDRVGVFLDYEACTVSFFNITNHGFLIYKFSHCSFSQPVFPYLNPRKCGVPMTLCSPSS [human TRIM5α, 6-codon deletion at 344] | 1.35 ± 1.2
MASGILVNVKEEVTCPICLELLTQPLSLDCGHSFCQACLTANHKKSMLDKGESSCPVCRISYQPENIRPNRHVANIVEKLREVKLSPEGQKVDHCARHGEKLLLFCQEDGKVICWLCERSQEHRGHHTFLTEEVAREYQVKLQAALEMLRQKQQEAEELEADIREEKASWKTQIQYDKTNVLADFEQLRDILDWEESNELQNLEKEEEDILKSLTNSETEMVQQTQSLRELISDLEHRLQGSVMELLQGVDGVIKRTENVTLKKPETFPKNQRRVFRAPDLKGMLEVFRELTDVRRYWVDVTVAPNNISCAVISEDKRQVSSPKPQIIYGARGTRYQTFVNFNYCTGYCTGILGSQSITSGKHYWEVDVSKKTAWILGVCAGFQPDAMCNIEKNENYQPKYGYWVIGLEEGVKCSAFQDSSFHTPSVPFIVPLSVIICPDRVGVFLDYEACTVSFFNITNHGFLIYKFSHCSFSQPVFPYLNPRKCGVPMTLCSPSS [human TRIM5α, 4-codon duplication at 344] | 0.529 ± 0.26
MASGILVNVKEEVTCPICLELLTQPLSLDCGHSFCQACLTANHKKSMLDKGESSCPVCRISYQPENIRPNRHVANIVEKLREVKLSPEGQKVDHCARHGEKLLLFCQEDGKVICWLCERSQEHRGHHTFLTEEVAREYQVKLQAALEMLRQKQQEAEELEADIREEKASWKTQIQYDKTNVLADFEQLRDILDWEESNELQNLEKEEEDILKSLTNSETEMVQQTQSLRELISDLEHRLQGSVMELLQGVDGVIKRTENVTLKKPETFPKNQRRVFRAPDLKGMLEVFRELTDVRRYWVDVTVAPNNISCAVISEDKRQVSSPKPQIIYQTFVNFNYCTGILGSQSITSGKHYWEVDVSKKTAWILGVCAGFQPDAMCNIEKNENYQPKYGYWVIGLEEGVKCSAFQDSSFHTPSVPFIVPLSVIICPDRVGVFLDYEACTVSFFNITNHGFLIYKFSHCSFSQPVFPYLNPRKCGVPMTLCSPSS [human TRIM5α, 7-codon deletion at 330] | 0.685 ± 0.13
